Hit rate of the full screen: of about 45,000 compounds, about 65 (0.1%) were called active. Calls come from the whole dose curve; as a rule, active = well fitted activation curve with a large enough effect; inconclusive = small, poorly fitted or top-dose-only effect; inactive = no such curve, though single readings can be large or run the other way. The list shows a part of the results.
Each molecule was assayed against Galactocerebrosidase (Homo sapiens) (UniProt P54803) (assay: A Novel Cell-Based Assay to Identify Small Molecules for B -Galactocerebrosidase). Conditions: 145M-Twi-hGALC-G270D cells (Twitcher mouse brain line with human GALC G270D), HMU-beta-Gal fluorescence, 48 h; series mostly up to 57.5 µM; activation: at the top concentration.
UniProt P54803, sequence (P54803 whole entry, looked up): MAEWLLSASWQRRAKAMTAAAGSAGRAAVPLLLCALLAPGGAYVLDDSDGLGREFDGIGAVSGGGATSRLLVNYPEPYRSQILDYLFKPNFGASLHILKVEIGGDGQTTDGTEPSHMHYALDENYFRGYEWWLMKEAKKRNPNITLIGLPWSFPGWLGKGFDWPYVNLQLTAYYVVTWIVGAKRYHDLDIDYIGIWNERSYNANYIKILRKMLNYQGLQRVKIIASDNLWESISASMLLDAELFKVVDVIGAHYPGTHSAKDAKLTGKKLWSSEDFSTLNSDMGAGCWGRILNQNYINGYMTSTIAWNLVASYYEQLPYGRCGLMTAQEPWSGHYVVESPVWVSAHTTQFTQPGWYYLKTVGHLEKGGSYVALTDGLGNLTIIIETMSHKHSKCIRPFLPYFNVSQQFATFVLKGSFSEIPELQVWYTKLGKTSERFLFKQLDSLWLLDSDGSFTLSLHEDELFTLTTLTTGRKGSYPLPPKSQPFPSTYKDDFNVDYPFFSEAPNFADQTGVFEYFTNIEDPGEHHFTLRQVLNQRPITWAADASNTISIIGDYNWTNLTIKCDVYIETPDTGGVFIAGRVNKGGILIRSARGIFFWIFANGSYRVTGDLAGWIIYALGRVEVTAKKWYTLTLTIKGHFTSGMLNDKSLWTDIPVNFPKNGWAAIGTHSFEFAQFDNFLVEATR
Summary of the method: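 Brain-derived Twitcher mouse 145M-Twi cells stably expressing human GALC-G270D or wild-type GALC, treated live, then residual GALC activity read by fluorescence of HMU-b-Gal substrate (0.1 mM final) in citrate-phosphate buffer pH 5.2 with sodium taurocholate. Signal increase indicates enhancement.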
Note: 0% is about no effect; nearly all actives have a fitted effect of over 65% in size.

| Compound | activation |
| --- | --- |
| CSc1nn(Cc2ccc(Cl)cc2)c(N(C(C)=O)C(C)=O)c1S(=O)(=O)c1ccccc1 | inactive: -3.88% |
| CCc1ccc2oc(C(=O)Nc3cccc(C(F)(F)F)c3)cc(=O)c2c1 | inactive: -13.9% |
| COc1ccccc1CN1COc2ccc3c(oc(=O)c4ccccc43)c2C1 | inactive: -17% |
| CCn1cc(C(=O)NCc2ccccc2OC)c(=O)c2cc(S(=O)(=O)N3CCCCC3)ccc21 | inactive: 5.13% |
| CCOC(=O)C1CCC(CN(Cc2ccc(Cl)cc2)S(=O)(=O)c2ccc(F)c(C(=O)Nc3cccc(F)c3)c2)CC1 (stereo unspecified) | inactive: -17.5% |
| CCOC(=O)c1cnc(NCc2ccccc2OC)c2ccccc12 | inactive: -26% |
| COc1cccc2sc(=NC(=O)c3ccc(S(=O)(=O)N4CCCCC4)cc3)n(C)c12 | inactive: 12.8% |
| COc1ccc(S(=O)(=O)N2CCCCC2)cc1C(=O)Nc1cccc(C(F)(F)F)c1 | inactive: -9.78% |
| COc1ccc(/C=C/C(=O)Nc2sc3c(c2C(N)=O)CCCC3)cc1 | inactive: -1.83% |
| COc1ccccc1Nc1cc(C(=O)NC2CCCC2)c2ccccc2n1 | inactive: -4.98% |
| CCn1c(=O)cc(SCC(=O)NCCc2ccc(Cl)cc2)c2ccccc21 | inactive: -15.8% |
| Cc1oc2ncn(CC(C)C)c(=O)c2c1C(=O)Nc1cc(F)ccc1F | inactive: -11.6% |
| CC(C)(C)C(=O)NCCc1nc2ccccc2n1CCCCOc1ccc(Cl)cc1 | inactive: -16.5% |
| Cc1ccc(Cn2c(C(=O)O)c(CNC3CCCCCC3)c3ccc(C)cc32)cc1 | inactive: 4.28% |
| COc1ccc(Cn2c(C(=O)O)c(CNCCc3cccs3)c3ccc(C)cc32)cc1 | inactive: -8.16% |
| COc1ccccc1CNC(=O)c1ccc2c(c1)N(Cc1cccc(Cl)c1)C(=O)c1ccccc1S2(=O)=O | inactive: -9.39% |
| Cc1ccc(NC(=O)Cn2c(=O)n(CCC(=O)N3CCc4ccccc4C3)c(=O)c3ccccc32)cc1 | inactive: -11% |
| CC(=O)c1ccc(NC(=O)Cn2c(=O)c3cccn3c3ccccc32)cc1 | inactive: -4.8% |
| O=C(NN1CCCC1)NS(=O)(=O)c1ccc(Cl)cc1 | inactive: -14% |
| COc1ccc(-n2nc3c(N4CCCC(C(=O)NCc5cccc(F)c5)C4)nnc(C)c3c2C)cc1 (stereo unspecified) | inactive: -3.85% |
| O=C(Oc1ccc(F)cc1)c1nc(SCc2ccccc2F)ncc1Cl | inactive: -9.04% |
| Cc1oc2ncn(C)c(=O)c2c1C(=O)N1CCN(c2ccccc2)CC1 | inactive: -12.9% |
| COc1ccccc1C(=O)NC1(C(F)(F)F)C(=O)Nc2c1c(=O)[nH]c(=O)n2-c1ccccc1 (stereo unspecified) | inactive: -11.9% |
| Cc1ccc(C)c(OCCn2cc(C(=O)c3ccco3)c3ccccc32)c1 | inactive: -21.9% |
| CCn1c(CNC(=O)C23CC4CC(CC(C4)C2)C3)nnc1SCC(=O)Nc1ccccc1 | inactive: -18.1% |
| COc1cccc(CNC(=O)c2cc3c(s2)-c2c(C)cccc2OC3)c1 | inactive: -19.2% |

Source: PubChem BioAssay AID1159614 (National Center for Advancing Translational Sciences (NCATS), 2016)
